SMILES strings stand for the structures. pKi: −log10 of the molar value. Some results are limits rather than exact numbers.

The test has as its target HCV NS3/NS4A protease (strain 1a) (Hepatitis C virus genotype 1a, UniProt P27958). The test is described as follows: biochemical. To be noted: Table 5; HCV NS3/NS4A protease, spectrophotometric assay, 30° C., pH 6.5; read-out: Ki* Range.
On to `CCCC(NC(=O)[C@@H]1[C@@H]2[C@H](CN1C(=O)[C@@H](NC(=O)[C@H](CC(C)C)NS(C)(=O)=O)C1CCCCC1)C2(C)C)C(=O)C(N)=O` (some centres unmarked), for which the pKi is 7.00 to 9.00.
As for `CC(C)(C)OC(=O)N[C@H](C(=O)N1C[C@H]2[C@@H]([C@H]1C(=O)NC(CC1CC1)C(=O)C(N)=O)C2(C)C)C1CCCCC1` (some centres unmarked), the pKi was 7.00 to 9.00.
The value for `CC(C)(C)OC(=O)N[C@H](C(=O)N1C[C@H]2[C@@H]([C@H]1C(=O)NC(CC1CC1)C(=O)C(N)=O)C2(C)C)C1CCC(F)(F)CC1` (some centres unmarked) was 7.00 to 9.00.
Then `CCCC(NC(=O)[C@@H]1[C@H]2[C@@H](CN1C(=O)[C@@H](NC(=O)OC(C)(C)C)C1CC3CCCCC3C1)C2(C)C)C(=O)C(N)=O` (some centres unmarked), with 6.00 to 7.00; and `CC(C)[C@@H](C)OC(=O)N[C@H](C(=O)N1C[C@@H]2[C@H]([C@H]1C(=O)NC(CC1CC1)C(=O)C(N)=O)C2(C)C)C1Cc2ccccc2C1` (some centres unmarked), with 7.00 to 9.00.
Regarding `CC(C)(C)OC(=O)N[C@H](C(=O)N1C[C@@H]2[C@H]([C@H]1C(=O)NC(CC1CC1)C(=O)C(N)=O)C2(C)C)C1CC2CCCCC2C1` (some centres unmarked), the pKi was 7.00 to 9.00.
The value for `CC1(C)C2CN(C(=O)[C@@H](NC(=O)NC34CC5CC(CC(C5)C3)C4)C3CCCCC3)[C@H](C(=O)NC(CC3CCC3)C(=O)C(N)=O)C21` (some centres unmarked) was 7.00 to 9.00; that for `CC(C)COC(=O)N[C@H](C(=O)N1C[C@@H]2[C@H]([C@H]1C(=O)NC(CC1CCC1)C(=O)C(N)=O)C2(C)C)C1CCCCC1` (some centres unmarked) was 7.00 to 9.00; that for `CC(C)(C)OC(=O)N[C@H](C(=O)N1C[C@@H]2[C@H]([C@H]1C(=O)NC(CC1CCC1)C(=O)C(N)=O)C2(C)C)C1CCC(F)(F)CC1` (some centres unmarked) was 7.00 to 9.00.
As for `CC1(C)C2CN(C(=O)[C@@H](NC(=O)OCC3CC3)C3CCCCC3)[C@H](C(=O)NC(CC3CCC3)C(=O)C(N)=O)C21` (some centres unmarked), the pKi was 6.00 to 7.00.
In the case of `CC(C)(C)OC(=O)N[C@H](C(=O)N1C[C@@H]2[C@H]([C@H]1C(=O)NC(CC1CCCCC1)C(=O)C(N)=O)C2(C)C)C1Cc2ccccc2C1` (some centres unmarked), the pKi is below 6.00.
Then `CC(C)(C)OC(=O)N[C@H](C(=O)N1C[C@@H]2[C@H]([C@H]1C(=O)NC(CC1CCCCC1)C(=O)C(N)=O)C2(C)C)C(C)(C)C` (some centres unmarked), with below 6.00.
On to `CC(C)(C)OC(=O)N[C@H](C(=O)N1C[C@@H]2[C@H]([C@H]1C(=O)NC(CC1CCCCC1)C(=O)C(N)=O)C2(C)C)C1CCCCC1` (some centres unmarked), for which the pKi was below 6.00.
Then `NC(=O)C(=O)C(CC1CCC1)NC(=O)[C@@H]1[C@@H]2[C@H](CN1C(=O)[C@@H](NC(=O)NC1CCCCC1)C1CCCCC1)C2(Cl)Cl` (some centres unmarked), with 7.00 to 9.00; and `CC1(C)[C@H]2[C@@H](C(=O)NC(CC3CCC3)C(=O)C(N)=O)N(C(=O)[C@@H](NC(=O)OC3CCCCC3)C3CCCCC3)C[C@H]21` (some centres unmarked), with 7.00 to 9.00.
In the case of `CC(C)[C@@H](C)OC(=O)N[C@H](C(=O)N1C[C@@H]2[C@H]([C@H]1C(=O)NC(CC1CCC1)C(=O)C(N)=O)C2(C)C)C1CCCCC1` (some centres unmarked), the negative logarithm of the Ki (pKi) is 7.00 to 9.00.
The value for `CC1(C)[C@H]2[C@@H](C(=O)NC(CC3CCC3)C(=O)C(N)=O)N(C(=O)[C@@H](NC(=O)OC34CC5CC(CC(C5)C3)C4)C3CCCCC3)C[C@H]21` (some centres unmarked) was 7.00 to 9.00; that for `CCCC(NC(=O)[C@@H]1CC(NS(=O)(=O)c2ccc(OC)cc2)CN1C(=O)[C@@H](NC(=O)OC(C)(C)C)C1CCCCC1)C(=O)C(N)=O` (some centres unmarked) was below 6.00.
On to `CC(C)(C)OC(=O)N[C@H](C(=O)N1C[C@@H]2[C@H]([C@H]1C(=O)NC(CC1CCC1)C(=O)C(N)=O)C2(Cl)Cl)C1CCCCC1` (some centres unmarked), for which the pKi is 7.00 to 9.00.
The value for `NC(=O)C(=O)C(CC1CC1)NC(=O)[C@@H]1[C@@H]2[C@H](CN1C(=O)[C@@H](NC(=O)NC1CCCCC1)C1CCCCC1)C2(Cl)Cl` (some centres unmarked) was 7.00 to 9.00; that for `CC(C)(C)NC(=O)N[C@H](C(=O)N1C[C@@H]2[C@H]([C@H]1C(=O)NC(CC1CC1)C(=O)C(N)=O)C2(Cl)Cl)C1CCCCC1` (some centres unmarked) was 7.00 to 9.00.
Then `CC(C)(C)NC(=O)N[C@H](C(=O)N1C[C@@H]2[C@H]([C@H]1C(=O)NC(CC1CCC1)C(=O)C(N)=O)C2(Cl)Cl)C1CCCCC1` (some centres unmarked), with 7.00 to 9.00; and `CC(NC(=O)N[C@H](C(=O)N1C[C@@H]2[C@H]([C@H]1C(=O)NC(CC1CCC1)C(=O)C(N)=O)C2(Cl)Cl)C1CCCCC1)C(C)(C)C` (some centres unmarked), with 7.00 to 9.00; and `CCOC1(OC(=O)N[C@H](C(=O)N2C[C@H]3[C@@H]([C@H]2C(=O)NC(CC2CC2)C(=O)C(N)=O)C3(C)C)C(C)(C)C)CC1` (some centres unmarked), with 6.00 to 7.00.
With `CCOC1(OC(=O)N[C@H](C(=O)N2C[C@H]3[C@@H]([C@H]2C(=O)NC(CC2CC2)C(=O)C(N)=O)C3(C)C)C2CCCCC2)CC1` (some centres unmarked), the negative logarithm of the Ki (pKi) was 7.00 to 9.00.
The value for `CC1(OC(=O)N[C@H](C(=O)N2C[C@H]3[C@@H]([C@H]2C(=O)NC(CC2CC2)C(=O)C(N)=O)C3(C)C)C2CCCCC2)CC1` (some centres unmarked) was 7.00 to 9.00.
As for `NC(=O)C(=O)C(CC1CC1)NC(=O)[C@@H]1[C@H]2[C@@H](CN1C(=O)[C@@H](NC(=O)NC13CC4CC(CC(C4)C1)C3)C1CCCCC1)C2(Cl)Cl` (some centres unmarked), the negative-log Ki (pKi) was 7.00 to 9.00.
Then `CC(C)NC(=O)N[C@H](C(=O)N1C[C@@H]2[C@H]([C@H]1C(=O)N[C@@H](CC1CCC1)C(=O)C(N)=O)C2(C)C)C(C)(C)C`, with 7.00 to 9.00; and `CC(C)(C)NC(=O)NC(C(=O)N1C[C@@H]2[C@H](C1C(=O)NC(CC1CCC1)C(=O)C(N)=O)C2(C)C)C(C)(C)C` (some centres unmarked), with 7.00 to 9.00; and `CC1(C)C2CN(C(=O)[C@@H](NC(=O)NC3CCCCC3)C(C)(C)C)[C@H](C(=O)NC(CC3CCC3)C(=O)C(N)=O)C21` (some centres unmarked), with 7.00 to 9.00.
The value for `CC(C)(C)CC(C)(C)NC(=O)N[C@H](C(=O)N1CC2C([C@H]1C(=O)NC(CC1CCC1)C(=O)C(N)=O)C2(C)C)C1CCCCC1` (some centres unmarked) was 7.00 to 9.00; that for `CCCC(NC(=O)[C@@H]1[C@@H]2[C@H](CN1C(=O)[C@@H](NC(=O)OC(C)(C)C(F)(F)F)C(C)(C)C)C2(C)C)C(=O)C(N)=O` (some centres unmarked) was 6.00 to 7.00; that for `CC1(C)[C@@H]2[C@@H](C(=O)NC(CC3CC3)C(=O)C(N)=O)N(C(=O)[C@@H](NC(=O)OC(C)(C)C(F)(F)F)C3CCCCC3)C[C@@H]21` (some centres unmarked) was 7.00 to 9.00.
In the case of `CC(C)(C)[C@H](NC(=O)OC(C)(C)C(F)(F)F)C(=O)N1C[C@H]2[C@@H]([C@H]1C(=O)NC(CC1CC1)C(=O)C(N)=O)C2(C)C` (some centres unmarked), the negative-log Ki (pKi) is 7.00 to 9.00.
Consider `CC1(C)[C@H]2[C@@H](C(=O)NC(CC3CC3)C(=O)C(N)=O)N(C(=O)[C@@H](NC(=O)OC3CC3)C3CCCCC3)C[C@H]21` (some centres unmarked), for which the negative-log Ki (pKi) is 6.00 to 7.00.
The value for `CC(C)(C)[C@H](NC(=O)OC1CC1)C(=O)N1C[C@H]2[C@@H]([C@H]1C(=O)NC(CC1CC1)C(=O)C(N)=O)C2(C)C` (some centres unmarked) was 6.00 to 7.00; that for `CC(C)COC(=O)N[C@H](C(=O)N1C[C@H]2[C@@H]([C@H]1C(=O)NC(CC1CC1)C(=O)C(N)=O)C2(C)C)C1CCCCC1` (some centres unmarked) was 6.00 to 7.00.
As to `CC(C)COC(=O)N[C@H](C(=O)N1C[C@H]2[C@@H]([C@H]1C(=O)NC(CC1CC1)C(=O)C(N)=O)C2(C)C)C(C)(C)C` (some centres unmarked), the pKi was 7.00 to 9.00.
The value for `CC(C)(C)[C@H](NC(=O)NC12CC3CC(CC(C3)C1)C2)C(=O)N1C[C@@H]2[C@H]([C@H]1C(=O)NC(CC1CCC1)C(=O)C(N)=O)C2(C)C` (some centres unmarked) was 7.00 to 9.00; that for `CC(C)C(C)NC(=O)N[C@H](C(=O)N1C[C@@H]2[C@H]([C@H]1C(=O)NC(CC1CCC1)C(=O)C(N)=O)C2(C)C)C(C)(C)C` (some centres unmarked) was 7.00 to 9.00; that for `CCCC(NC(=O)[C@@H]1[C@H]2[C@@H](CN1C(=O)C(NC(=O)NC(C)(C)C)C1CCCCC1)C2(Cl)Cl)C(=O)C(N)=O` (some centres unmarked) was 7.00 to 9.00.

One may read the pKi as the Ki on a negative log10 scale, so that one unit is a factor of ten.
